Data: the RNAGym collection of RNA variant scans (doi:10.1093/nar/gkz1192)
Read counts are not given, so values of variants with three or more changes are uncertain.

B1: CPEB3 Ribozyme (parent)
chain: UAACAGGGGGCCACAGCAGAAGCGUUCACGUCGCAGCCCCUGUCAGAUUCUGGUGAAUCUGCGAAUUCUGCUGUAUAUCUC

Variants of: B1
Experiment: self-cleavage, relative activity (ratio to wild type); higher = more cleavage; in vitro, sequencing
Method in brief: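 Relative activity compares each variant's cleaved/total read fraction with that of the unmutated ribozyme. To get these fractions, barcoded CPEB3 ribozyme libraries from rounds of error-prone PCR were transcribed with T7 RNA polymerase for 5 hours at 37°C and then given 15 min of DNase I treatment before EDTA was added. The RNAs were reverse transcribed with template switching and sequenced on Illumina, and DNA sequencing linked barcodes to variants. A minimum of 5 reads applied, and three batches were averaged.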

Row | Variant | self-cleavage
1 | A21G U43A U58C U69A | 0.21
2 | A21G U43C A75G | 0.15
3 | A21G U43C U51C A64G U66C | 0.12
4 | A21G U48C A56G U76C U78C | 0.25
5 | A21G U48C G52A | 0.45
6 | A21G U48C U49A U60C U66C | 0.21
7 | A21G U48C U51A A56U | 0.16
8 | A21G U48C U60G | 0.3
9 | A21G U49C A57U U72A U78C | 0.09
10 | A21G U49C A65G U72C | 0.12
11 | A21G U49C U60C A77U | 0.24
12 | A21G U51A U58C U72A A75U | 0.21
13 | A21G U51A U69A U72C U78A | 0.18
14 | A21G U51A U80C | 0.85
15 | A21G U51C U54A U58A | 0.2
16 | A21G U51C U67C | 0.56
17 | A21G U54A C59U | 0.15
18 | A21G U54C A64U | 0.11
19 | A21G U54C G61A A75U U78C | 0.14
20 | A21G U54C U72G U78C | 0.32
21 | A21G U54C U80C | 0.7
22 | A21G U58A U66C | 0.28
23 | A21G U58C U74A | 0.42
24 | A21G U60A C62U | 0.41

Row | Variant | self-cleavage
25 | A21G U60C U69C | 0.25
26 | A21G U60C U76G | 0.32
27 | A21G U66C C71A U72A | 0.15
28 | A21G U67A U78C | 0.14
29 | A21G U67C A77G | 0.16
30 | A21G U67C U78A | 0.13
31 | A21G U69C U72C | 0.26
32 | A21G U69G U76G | 0.43
33 | A21G U72G U78C U80A | 0.79
34 | A21G U74A A75G | 0.31
35 | A21G U74A U76C | 1.01
36 | A21G U74C A75G | 0.99
37 | A21G U74C U80C | 0.54
38 | A21U A28G A45C G52C U69A | 0.13
39 | A21U A28G A47U U72C | 0.13
40 | A21U A28G U31C A65U U80A | 0.1
41 | A21U A28G U60C U78A | 0.19
42 | A21U A28U U31C C39G U43C | 0.09
43 | A21U A28U U48G A75U | 0.08
44 | A21U A35G A65G U66C | 0.57
45 | A21U A35G C50U | 1.21
46 | A21U A35U U41C U43A | 0.09
47 | A21U A47U A56G | 0.17
48 | A21U C23A C29U A56U C62A U80G | 0

Row | Variant | self-cleavage
49 | A21U C23U A45G A64G | 0.26
50 | A21U C29A A35G U51A U72C | 0.16
51 | A21U C29U G33A C34U U43C U48C G52A | 0.06
52 | A21U C29U U74C | 0.41
53 | A21U C29U U80C | 0.29
54 | A21U C39A U41A U60G U69G U72C | 0.05
55 | A21U C39U A64G | 0.1
56 | A21U C44U A56G U76C | 0.06
57 | A21U C62G U67C | 0.36
58 | A21U G22A G42A U43C A65U | 0.11
59 | A21U G24A U41C A47G A56C | 0.07
60 | A21U G24C A35G A57G | 0.13
61 | A21U G33A U51C U72A | 0.11
62 | A21U G36U U67C | 0.08
63 | A21U G53A U72A C81U | 0.19
64 | A21U G55A U69G | 0.1
65 | A21U G55A U78C U80C | 0.14
66 | A21U U25A A35G | 0.2
67 | A21U U25A U26A U51A | 0.23
68 | A21U U25C U49A U69C U78C | 0.05
69 | A21U U25C U60C U69A | 0.07
70 | A21U U25G C29U G36U C40U U49C U54G | 0.02
71 | A21U U26A U43C A45C U67C G70A | 0.23
72 | A21U U26A U49A A65G | 0.14

Row | Variant | self-cleavage
73 | A21U U26C A45G U49C | 0.2
74 | A21U U26C A56G A64G U72C | 0.06
75 | A21U U26C C29A C39U A47G A77U U80A | 0.07
76 | A21U U26C G30A U43C U51C A57U U72A | 0.5
77 | A21U U31A U54C U60C U66A | 0.08
78 | A21U U31C A45C U72C | 0.13
79 | A21U U31C A45U U51A A64G | 0.06
80 | A21U U41A U43C A64G U78C | 0.08
81 | A21U U41A U58A C59U C68A | 0.07
82 | A21U U41A U72C | 0.44
83 | A21U U41C U43A A45C U60A A65G | 0.06
84 | A21U U43A A65G U76C | 0.24
85 | A21U U43C A45C U67C G70A | 0.14
86 | A21U U43C A57G U72C U78C | 0.35
87 | A21U U43C U49C U54A | 0.37
88 | A21U U48C A56G | 0.39
89 | A21U U49A U51C U58C | 0.13
90 | A21U U49C A64G | 0.45
91 | A21U U49C U54A U78C | 0.1
92 | A21U U60C U72C A77U | 0.18
93 | A21U U66C U80C | 0.39
94 | A21U U74A A77C | 0.77
95 | G22A A28C U49A | 0.15
96 | G22A A28G U41G U51A | 0.07

Row | Variant | self-cleavage
97 | G22A A35U C38A A56G A64U U74C | 0.1
98 | G22A C39U A57G U69A | 0.1
99 | G22A C50A A65G U80C | 0.23
100 | G22A G53C U54G | 0.31
101 | G22A U25A C38U U41G A56G G70A | 0.05
102 | G22A U25C A28U U41C A47G U54G | 0.15
103 | G22A U25C U41C A45G | 0.09
104 | G22A U26A U49A U51A A56U | 0.07
105 | G22A U26A U74A U78C | 0.32
106 | G22A U26C A28U U60C U72G | 0.06
107 | G22A U26C A47G | 0.09
108 | G22A U31C G36C G53A U58C | 0.14
109 | G22A U41A U78C | 0.12
110 | G22A U41C U43A | 0.4
111 | G22A U43A U60A G73A | 0.26
112 | G22A U43G U54A U67A | 0.08
113 | G22A U49C U51C U69A U78G | 0.05
114 | G22A U51G A56G | 0.09
115 | G22A U60A U69C U72A U78C | 0.11
116 | G22A U72C U78C | 0.29
117 | G22C C29U U60C C62A | 0.06
118 | G22C G24A U26C C62A | 0.07
119 | G22C U41A U51C U80C | 0.09
120 | G22C U48C U69C | 0.1

Row | Variant | self-cleavage
121 | G22U A28G U31A C40U U48C U51C U69C | 0
122 | G22U C32A A45U U60C U72A | 0.06
123 | G22U G53U G63A | 0.29
124 | G22U U25C A65U | 0.12
125 | G22U U26A A28G | 0.26
126 | G22U U26C A35G G63A | 0.08
127 | G22U U26C C40U U54C U69C U80A | 0.15
128 | G22U U43C A45U U54G A56U A75G | 0.05
129 | G22U U48C A65G | 0.08
130 | G22U U51A U78C | 0.33
131 | C23A A28G A35U C59A C62G U78G | 0.09
132 | C23A A28G U41C U54C A65G U78C | 0.06
133 | C23A A35G U49C U80A | 0.08
134 | C23A A47G C71A | 0.41
135 | C23A A64U U78C | 0.14
136 | C23A C34A A47G | 0.25
137 | C23A C37U U43C A57G U66C | 0.08
138 | C23A G30A U43C | 0.13
139 | C23A G30U A47G U58A U60A G63A A64G | 0.07
140 | C23A U25C A28G U69C | 0.09
141 | C23A U25C A35G | 0.27
142 | C23A U25C U43C A57G A64U | 0.3
143 | C23A U25C U78C | 0.23
144 | C23A U26C U41A U51C U80A | 0.27

Row | Variant | self-cleavage
145 | C23A U31C A65G | 0.08
146 | C23A U41C A47G | 0.16
147 | C23A U41C U51A U72C | 0.14
148 | C23A U41C U74C | 0.67
149 | C23A U49A U60A | 0.13
150 | C23A U51C U74A A75G | 0.08
151 | C23G A28G U48C | 0.05
152 | C23G A28U U72A | 0.1
153 | C23G A45G U72C | 0.09
154 | C23G A47U U58A A65U | 0.08
155 | C23G A64G U80C | 0.25
156 | C23G C32A C40A C71A | 0.04
157 | C23G C32G U41C | 0.09
158 | C23G C39U U72A | 0.12
159 | C23G C44U A57G U78A | 0.23
160 | C23G G42A U58A | 0.07
161 | C23G G55A A65U A75G | 0.04
162 | C23G U25C A35G U41A U43A U51G U78C | 0.03
163 | C23G U25C A35U U60C | 0.06
164 | C23G U25C A77G | 0.19
165 | C23G U25C U51A A65G | 0.19
166 | C23G U26A A45G | 0.09
167 | C23G U26A U60C U74A | 0.07
